Structures are written as SMILES. In all, about 310,000 compounds went through this assay and about 14,000 (4.5%) showed an effect of 50% or more. The effect is printed as a negative number. This is one part of the list.
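Note: peak tail current of the secondary pulse compared with the same well before compound.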

For the assay, the target named is human ether-à-go-go-related gene (hERG) potassium channel (human, UniProt Q12809). As to the kind of experiment: primary screen, population patch clamp on CHO cells stably expressing hERG.
Sequence of human ether-à-go-go-related gene (hERG) potassium channel (Q12809 whole entry, looked up): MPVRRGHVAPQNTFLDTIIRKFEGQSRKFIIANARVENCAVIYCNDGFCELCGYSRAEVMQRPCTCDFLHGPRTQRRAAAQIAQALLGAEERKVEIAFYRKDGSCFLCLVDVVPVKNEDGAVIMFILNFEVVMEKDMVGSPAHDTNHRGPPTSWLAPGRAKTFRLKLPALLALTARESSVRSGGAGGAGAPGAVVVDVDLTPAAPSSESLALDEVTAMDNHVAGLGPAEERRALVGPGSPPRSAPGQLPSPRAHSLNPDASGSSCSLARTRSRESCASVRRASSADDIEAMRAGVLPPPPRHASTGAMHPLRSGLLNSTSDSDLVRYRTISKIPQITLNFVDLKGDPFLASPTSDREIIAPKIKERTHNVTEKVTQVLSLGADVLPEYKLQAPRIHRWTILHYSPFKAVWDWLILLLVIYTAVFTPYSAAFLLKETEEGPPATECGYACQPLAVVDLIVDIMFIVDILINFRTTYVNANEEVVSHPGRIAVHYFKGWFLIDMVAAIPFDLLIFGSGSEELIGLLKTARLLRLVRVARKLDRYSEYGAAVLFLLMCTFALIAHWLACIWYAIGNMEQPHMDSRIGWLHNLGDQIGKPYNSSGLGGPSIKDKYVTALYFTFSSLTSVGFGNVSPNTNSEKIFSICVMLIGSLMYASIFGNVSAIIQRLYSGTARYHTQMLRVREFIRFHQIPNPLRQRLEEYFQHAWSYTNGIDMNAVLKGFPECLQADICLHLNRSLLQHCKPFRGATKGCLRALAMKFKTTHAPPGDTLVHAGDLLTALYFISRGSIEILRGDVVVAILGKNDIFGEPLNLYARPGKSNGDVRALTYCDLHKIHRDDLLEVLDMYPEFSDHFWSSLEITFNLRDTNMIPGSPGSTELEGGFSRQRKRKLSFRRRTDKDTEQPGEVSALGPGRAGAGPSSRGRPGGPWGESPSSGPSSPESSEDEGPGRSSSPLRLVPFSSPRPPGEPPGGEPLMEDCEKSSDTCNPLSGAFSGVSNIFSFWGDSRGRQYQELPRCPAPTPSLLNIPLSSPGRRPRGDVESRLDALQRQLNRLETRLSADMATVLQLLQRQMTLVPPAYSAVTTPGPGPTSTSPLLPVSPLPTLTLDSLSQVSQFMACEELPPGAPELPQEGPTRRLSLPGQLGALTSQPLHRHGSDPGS
Regarding `COCCCNC(=O)c1ccc(N2CCOCC2)c(NS(=O)(=O)c2ccc(OC)cc2)c1`, the “hERG current change (%, negative = inhibition) at 10uM” value is reported as -14.2%.

With `O=C(Oc1cccc(-c2cnc3ccccc3n2)c1)c1ccco1`, the “hERG current change (%, negative = inhibition) at 10uM” value is reported as -5.02%.

As to `COC(=O)C1C(=O)C(C(=O)c2ccc([N+](=O)[O-])cc2)C(=O)CC1(C)C` (stereo not drawn), the “hERG current change (%, negative = inhibition) at 10uM” value is given as 19.8%.

As for `Cc1noc(C)c1COc1ncnc2ccccc12`, the “hERG current change (%, negative = inhibition) at 10uM” value was 31.6%.

For the compound `Cc1cc(NC(=O)CSc2nnc(CNC(=O)c3ccc(F)cc3)o2)no1`, the “hERG current change (%, negative = inhibition) at 10uM” value is reported as 3.74%.

As to `CCN(CC)CCNC(=O)Cc1c(C(=O)O)n(CC)c2ccccc12`, the “hERG current change (%, negative = inhibition) at 10uM” value is 9.46%.

Take `O=C(CCn1nc(-c2ccccc2)c2ccccc2c1=O)NN1CCOCC1`: the “hERG current change (%, negative = inhibition) at 10uM” value came to 24.3%.

For `COc1ccc(-n2c(CN3CCC(C)CC3)nc3ccc([N+](=O)[O-])cc3c2=O)c(OC)c1`, the “hERG current change (%, negative = inhibition) at 10uM” value is given as 4.93%.

With `CCOC(=O)c1c(C)nc2sc3c(=O)[nH]cnc3c2c1-c1ccc(OC)cc1`, the “hERG current change (%, negative = inhibition) at 10uM” value is 11.5%.

In the case of `O=C1NCCN1CCNS(=O)(=O)c1ccc(F)c(Cl)c1`, the “hERG current change (%, negative = inhibition) at 10uM” value stood at 2.05%.

In the case of `COc1ccccc1NC(=S)NCc1ccc(Cl)cc1`, the “hERG current change (%, negative = inhibition) at 10uM” value was -14.4%.

Turning to `C=CCc1cccc2cc(C(=O)NC)c(=O)oc12`, the “hERG current change (%, negative = inhibition) at 10uM” value is -5.8%.

With `CCc1nc(N)c(C#N)c(-c2ccc(OC)c(OC)c2)c1C`, the “hERG current change (%, negative = inhibition) at 10uM” value is listed as 9.93%.

As to `O=C(CN1C(=O)C2C3C=CC(C3)C2C1=O)NC1CCCc2ccccc21` (stereo not drawn), the “hERG current change (%, negative = inhibition) at 10uM” value is listed as -2.95%.

For the compound `O=C(NCCC1=CCCCC1)C1CC(=O)N(Cc2ccccc2)C1` (stereo not drawn), the “hERG current change (%, negative = inhibition) at 10uM” value is 2.53%.

With `CCN(CC(=O)NCc1cccs1)C(=O)c1ccccc1F`, the “hERG current change (%, negative = inhibition) at 10uM” value stood at 9.12%.

As to `Cc1cc(NC(=O)c2cc3nc(C4CC4)cc(C(F)(F)F)n3n2)no1`, the “hERG current change (%, negative = inhibition) at 10uM” value is reported as -0.862%.

For the compound `Cc1ccc(CN2C(=O)NC(=O)C3(Cc4c(nc5ccccn5c4=O)N4CCCCCC43)C2=O)cc1` (stereo not drawn), the “hERG current change (%, negative = inhibition) at 10uM” value is recorded as -0.877%.

Regarding `O=C1c2ccccc2C(=O)N1CCc1ccccc1`, the “hERG current change (%, negative = inhibition) at 10uM” value is 4.5%.

For `N#Cc1nc(Cc2cccc3ccccc23)oc1N1CCC(C(N)=O)CC1`, the “hERG current change (%, negative = inhibition) at 10uM” value is on record as -12.8%.

Regarding `O=C(COc1ccc([N+](=O)[O-])cc1)Nc1ccc(C(=O)NCc2cccnc2)cc1`, the “hERG current change (%, negative = inhibition) at 10uM” value is recorded as -22.8%.

As for `CCCS(=O)(=O)N1CCC(C(=O)NCCCN(C)Cc2ccccc2)CC1`, the “hERG current change (%, negative = inhibition) at 10uM” value is 3.83%.

On to `COC(=O)C1=C(C)N(C2CCCC2)C(=O)C1(NC(C)=O)C(F)(F)F` (stereo not drawn), for which the “hERG current change (%, negative = inhibition) at 10uM” value is recorded as 0.779%.

As to `CCOc1ccccc1NC(=O)CSC1=C(C#N)C(c2ccco2)C(C(=O)Nc2nc3ccccc3s2)=C(C)N1` (stereo not drawn), the “hERG current change (%, negative = inhibition) at 10uM” value was -3.6%.

Turning to `O=C1C=C(c2ccc3c(c2)OCO3)C[C@@H](c2ccc3c(c2)OCO3)C1`, the “hERG current change (%, negative = inhibition) at 10uM” value is 10.9%.

Turning to `COc1ccccc1C(=O)COC(=O)CSCC(=O)Nc1cc(C)on1`, the “hERG current change (%, negative = inhibition) at 10uM” value came to 2.58%.

In the case of `CC1(C)CC(NC(=O)N2c3ccccc3Sc3ccccc32)CC(C)(C)N1`, the “hERG current change (%, negative = inhibition) at 10uM” value is -0.218%.

Consider `COc1ccc(C2CC(c3cccs3)=NN2C(=O)c2ccco2)cc1OC` (stereo not drawn), for which the “hERG current change (%, negative = inhibition) at 10uM” value is recorded as -33.4%.

For `CC(=O)N1CCN(c2ccc(C(N)=O)cc2[N+](=O)[O-])CC1`, the “hERG current change (%, negative = inhibition) at 10uM” value was determined as 8.73%.

On to `CCOC(=O)c1cccc(C2=CC(=O)C[C@H](c3ccc(Cl)cc3)C2)c1`, for which the “hERG current change (%, negative = inhibition) at 10uM” value was 5.03%.

As for `CCOC(=O)c1ccc(CSc2nnc(N)s2)cc1`, the “hERG current change (%, negative = inhibition) at 10uM” value is listed as -11.7%.

Consider `COc1ccccc1/C=N/OCc1ccc(C#N)cc1`, for which the “hERG current change (%, negative = inhibition) at 10uM” value is -3.07%.

For the compound `Cc1cc(C)n2nc(SCc3nnc(-c4cccs4)o3)nc2n1`, the “hERG current change (%, negative = inhibition) at 10uM” value is 9.05%.

Regarding `CCC(C)Nc1nc2c(c(=O)n(C)c(=O)n2C)n1C` (stereo not drawn), the “hERG current change (%, negative = inhibition) at 10uM” value is recorded as 6.25%.

As for `O=C(CSc1nnc(CNc2ccc(F)cc2)n1Cc1ccccc1)N1CCOCC1`, the “hERG current change (%, negative = inhibition) at 10uM” value is -14.7%.

With `Cc1cc(C)n(C/C=C/Cn2nc(C)cc2C)n1`, the “hERG current change (%, negative = inhibition) at 10uM” value is -16.6%.

Turning to `COc1ccc(Nc2nc(NC(C)(C)C)nc(N3CCOCC3)n2)c(OC)c1`, the “hERG current change (%, negative = inhibition) at 10uM” value was -25.3%.

With `COc1cccc(NC(=O)NNC(=O)c2ccc3c(c2)NC(=O)C(C)(C)O3)c1`, the “hERG current change (%, negative = inhibition) at 10uM” value is given as 15.4%.

In the case of `Cc1ccc(NC(=O)CSc2nc3c(c(=O)[nH]2)CCC3)c(C)c1`, the “hERG current change (%, negative = inhibition) at 10uM” value is reported as 21.3%.

As to `CCC1CCCCN1C(=O)CCc1nnc(Cc2c[nH]c3ccccc23)o1` (stereo not drawn), the “hERG current change (%, negative = inhibition) at 10uM” value is reported as -1.33%.

For the compound `CC(NC(=O)CCCc1ccccc1)c1ccncc1` (stereo not drawn), the “hERG current change (%, negative = inhibition) at 10uM” value is recorded as -9.71%.

For `CCCn1c(SCC(=O)NCCc2ccccc2)nnc1-c1ccco1`, the “hERG current change (%, negative = inhibition) at 10uM” value is -44.1%.

As for `O=C(CCn1nc(-c2ccc(Cl)cc2)ccc1=O)N1CCN(c2ccc(F)cc2)CC1`, the “hERG current change (%, negative = inhibition) at 10uM” value was -52.9%.

As to `Cc1sc(NC(=O)c2ccco2)c(C(c2cccnc2)N2CCN(C)CC2)c1C` (stereo not drawn), the “hERG current change (%, negative = inhibition) at 10uM” value is -32.7%.

As to `CC(C)NC(=S)NC(=O)c1ccc(-c2ccccc2)cc1`, the “hERG current change (%, negative = inhibition) at 10uM” value is -23.9%.

On to `Nc1nncn1C(=O)c1cccs1`, for which the “hERG current change (%, negative = inhibition) at 10uM” value stood at 0.103%.

With `CCOC(=O)c1cc2c(ccn2C)n1CC(=O)N1CCN(c2ccc(F)cc2)CC1`, the “hERG current change (%, negative = inhibition) at 10uM” value is given as 5.83%.

Turning to `COc1cc(OC)c(NC2c3ccccc3C(=O)N2c2cc(C)ccn2)cc1Cl` (stereo not drawn), the “hERG current change (%, negative = inhibition) at 10uM” value turned out to be 6.6%.

`CCOc1ccc(NC(=O)Cn2nnc(C(=O)NCc3ccco3)c2N)cc1`: the “hERG current change (%, negative = inhibition) at 10uM” value is reported as 15.1%.

On to `O=[N+]([O-])c1ccc(NC2CCCC2)c2ccncc12`, for which the “hERG current change (%, negative = inhibition) at 10uM” value stood at 17.4%.

On to `Br.Cn1c(=N)n(CC(=O)c2ccc(F)cc2)c2ccccc21`, for which the “hERG current change (%, negative = inhibition) at 10uM” value was -23.2%.

In the case of `O=C(O)c1ccc2c(c1)-c1cc(C(=O)O)ccc1S2(=O)=O`, the “hERG current change (%, negative = inhibition) at 10uM” value was 9.48%.

With `COc1ccc(S(=O)(=O)n2cccc2)c(OC)c1`, the “hERG current change (%, negative = inhibition) at 10uM” value worked out at 5.65%.

`CN(C)S(=O)(=O)c1ccc2c(c1)c(=O)c(C(=O)N1CCN(c3ccccn3)CC1)cn2C`: the “hERG current change (%, negative = inhibition) at 10uM” value was 7.01%.

On to `O=C(CNC(=O)c1ccc(Br)o1)NNC(=O)c1ccc(Cl)cc1`, for which the “hERG current change (%, negative = inhibition) at 10uM” value is recorded as -27.1%.

On to `CC1(C)CC(=O)C=C(NCCN2CCN(C(=O)Nc3ccc(Cl)cc3)CC2)C1`, for which the “hERG current change (%, negative = inhibition) at 10uM” value is on record as -10.1%.

Consider `CCOC(=O)C1(C)NC(c2cccs2)C2C(=O)N(c3ccc(OC)cc3)C(=O)C21` (stereo not drawn), for which the “hERG current change (%, negative = inhibition) at 10uM” value amounted to 5.67%.

The values are drawn from article PMC4336329 (PLoS ONE, 2015).
